Results reported in the antibiotic and cytotoxicity screens of Wong et al. (2023).
The other results are listed elsewhere or left out.

system: S. aureus RN4220; assay: growth inhibition call (relative growth <= 0.2); settings: 50 µM

Growth inhibition call, inactive:
C[C@H](CO)N1C[C@H](C)[C@H](CN(C)C(=O)Nc2ccc(F)cc2)OCCCC[C@H](C)Oc2ccc(NC(=O)CCC(F)(F)F)cc2C1=O
CCc1cccc(C(C)C)c1NC(=O)Nc1ccccc1
Cc1noc(C)c1S(=O)(=O)N(C)C[C@@H]1Oc2c(NS(C)(=O)=O)cccc2C(=O)N([C@@H](C)CO)C[C@H]1C
COc1ccc(S(=O)(=O)N(C)C[C@@H]2Oc3c(NC(=O)c4ccncc4)cccc3C(=O)N([C@@H](C)CO)C[C@H]2C)cc1
C[C@@H]1CCCCO[C@H](CN(C)C(=O)NC2CCCCC2)[C@@H](C)CN([C@H](C)CO)C(=O)c2cc(NC(=O)C3CCCCC3)ccc2O1
C[C@@H]1CN([C@@H](C)CO)C(=O)c2cccc(NC(=O)c3ccncc3)c2O[C@@H]1CN(C)Cc1ccc2c(c1)OCO2
C[C@H](NC(=O)C[C@@H]1CC[C@H](NC(=O)CN2CCOCC2)[C@@H](CO)O1)c1ccccc1
